Source: the BET-seq Pho4 binding data (Le et al. 2018)
The other results are listed elsewhere or left out. The energies were worked out here from pooled read counts, against the library average; single values are noisy.

biological target: T1, Pho4 (S. cerevisiae) (UniProt P07270); experiment: relative binding free energy (BET-seq); higher = weaker binding; settings: reference: library average
T1 sequence: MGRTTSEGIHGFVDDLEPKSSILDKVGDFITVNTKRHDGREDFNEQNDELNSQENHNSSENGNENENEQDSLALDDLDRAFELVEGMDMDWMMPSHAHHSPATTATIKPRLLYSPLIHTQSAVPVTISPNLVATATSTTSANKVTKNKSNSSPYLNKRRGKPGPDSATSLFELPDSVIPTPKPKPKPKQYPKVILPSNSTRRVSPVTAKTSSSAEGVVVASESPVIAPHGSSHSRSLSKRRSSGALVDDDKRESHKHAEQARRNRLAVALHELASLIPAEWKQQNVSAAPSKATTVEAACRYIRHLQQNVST

Sequence	relative binding free energy
TATATCACGTGGTCGA	0.11 kcal/mol
AGCTACACGTGTGGGG	0.14 kcal/mol
TTAGGCACGTGGAATC	0.01 kcal/mol
GGTTTCACGTGCTGAG	0.26 kcal/mol
GTGGTCACGTGTGCTG	0.12 kcal/mol
AATAACACGTGGATTG	0.1 kcal/mol
TTTGTCACGTGGGTGG	0.01 kcal/mol
CGTTTCACGTGGTTGA	0.28 kcal/mol
GCGTGCACGTGATGGA	0.19 kcal/mol
TTGAGCACGTGTTACG	-0.12 kcal/mol
TTGAGCACGTGGCATA	-0.2 kcal/mol
GTCTTCACGTGATAGG	0.52 kcal/mol
CTGTTCACGTGGAATT	0.35 kcal/mol
TTTGGCACGTGTGCCG	-0.04 kcal/mol
CGTTGCACGTGTGGTT	0.07 kcal/mol
AATTACACGTGGGTGG	0.04 kcal/mol
AGGGCCACGTGTAAAT	0.15 kcal/mol
TAGTCCACGTGGTAAG	-0.03 kcal/mol
AGCTTCACGTGGTGGT	0.18 kcal/mol
TTGGACACGTGAGTAG	0.22 kcal/mol
TTATACACGTGTGTTG	0.05 kcal/mol
TATGTCACGTGTGCTA	0.01 kcal/mol
GTTTTCACGTGTACGA	0.31 kcal/mol

Sequence	relative binding free energy
AGGTTCACGTGTATGA	0.36 kcal/mol
TAAGACACGTGTGGGG	0.02 kcal/mol
TGATGCACGTGTTTTT	0.08 kcal/mol
ATGTACACGTGGCGGT	0.04 kcal/mol
GTAGTCACGTGAGATA	0.31 kcal/mol
AGCTTCACGTGTGGTA	0.3 kcal/mol
TTCTTCACGTGGGTCG	0.14 kcal/mol
ATTATCACGTGAGGTC	0.24 kcal/mol
GTAAGCACGTGAAGAG	0.31 kcal/mol
TGCATCACGTGGGTAA	0 kcal/mol
CTGGGCACGTGGGGTA	-0.17 kcal/mol
AGTGACACGTGGTTGG	-0.18 kcal/mol
TGTGCCACGTGTGATT	-0.01 kcal/mol
TGGTGCACGTGATCTA	0.09 kcal/mol
TGGAACACGTGGGGCG	-0.07 kcal/mol
TGAAGCACGTGGAAAG	0.12 kcal/mol
TGCTTCACGTGGGTAA	0 kcal/mol
AGGTCCACGTGAGTGG	0.16 kcal/mol
GAAACCACGTGGGGTG	-0.15 kcal/mol
TGAGTCACGTGAGTTC	0.35 kcal/mol
CTCGTCACGTGGTGTG	-0.1 kcal/mol
TCCGGCACGTGGTTGG	-0.16 kcal/mol
TTGCTCACGTGAAGGG	0.48 kcal/mol

Sequence	relative binding free energy
TGATGCACGTGTAAGA	0.09 kcal/mol
GTTCGCACGTGTAGCG	0.04 kcal/mol
GTCGTCACGTGTGTGG	0.18 kcal/mol
CCGGTCACGTGTCGGT	0.16 kcal/mol
CATGGCACGTGATTGT	-0.13 kcal/mol
AGTAACACGTGTATGA	0 kcal/mol
TGGTGCACGTGGGGCT	-0.1 kcal/mol
AGTAGCACGTGGTAGG	-0.12 kcal/mol
GTGTTCACGTGGTGTC	0.3 kcal/mol
ATTGACACGTGTGGCT	0 kcal/mol
AAGGTCACGTGGATGG	0.08 kcal/mol
AGGACCACGTGTGTTT	0.06 kcal/mol
AGGAGCACGTGTTTAG	-0.2 kcal/mol
CAGTACACGTGGTGTT	0.07 kcal/mol
GGATTCACGTGGCTTG	0.21 kcal/mol
AAGGTCACGTGATTTC	0.29 kcal/mol
TGTTTCACGTGCAAAG	0.26 kcal/mol
TGTTTCACGTGGGGAT	0.23 kcal/mol
ATGTCCACGTGGATGT	0.02 kcal/mol
TGTCGCACGTGGGGGG	-0.14 kcal/mol
AAGTACACGTGAGTGG	0.3 kcal/mol
ACTTTCACGTGTGTAG	0.19 kcal/mol
TACGGCACGTGTTGAG	0.05 kcal/mol

Sequence	relative binding free energy
ACAGTCACGTGAGTGG	0.23 kcal/mol
TCTATCACGTGTAAGT	0.17 kcal/mol
GGACTCACGTGGTGGT	0.19 kcal/mol
ATTTCCACGTGTAAGG	0.18 kcal/mol
TATTTCACGTGATTTC	0.33 kcal/mol
CGTGACACGTGGTGGG	-0.06 kcal/mol
AAGGACACGTGTTATG	0.11 kcal/mol
AGGATCACGTGAAGTG	0.36 kcal/mol
TCTGTCACGTGGGGAG	-0.07 kcal/mol
TATTTCACGTGCAGGG	0.23 kcal/mol
AGGGCCACGTGGGTCT	-0.2 kcal/mol
GTGTGCACGTGGTCGC	-0.23 kcal/mol
TAGGACACGTGTGCGT	0 kcal/mol
TATGCCACGTGTTTGA	-0.08 kcal/mol
GAAGTCACGTGGTGGT	0.21 kcal/mol
ATTTTCACGTGTGCAA	0.23 kcal/mol
ATAAGCACGTGGGTGC	-0.29 kcal/mol
TCCTGCACGTGGGAGG	-0.13 kcal/mol
GGGGTCACGTGAGGGG	0.4 kcal/mol
CGATGCACGTGTATTT	0.05 kcal/mol
TCAGGCACGTGATAGG	-0.08 kcal/mol
TCGGTCACGTGCTGGG	0 kcal/mol
AGTAACACGTGCGTTG	-0.15 kcal/mol

Sequence	relative binding free energy
TGGAGCACGTGTGGCA	-0.12 kcal/mol
GTAGTCACGTGACTGT	0.18 kcal/mol
AGACGCACGTGGTGGT	-0.21 kcal/mol
CATTACACGTGTGTGG	0.03 kcal/mol
TACTGCACGTGATTTT	0.15 kcal/mol
TTAGTCACGTGTTGTG	0.15 kcal/mol
TGCCTCACGTGCGTGG	0.16 kcal/mol
AATGTCACGTGGAGGC	0.03 kcal/mol
GGCATCACGTGTTATT	0.19 kcal/mol
TATTTCACGTGTTATG	0.18 kcal/mol
ATGTTCACGTGAAGGC	0.47 kcal/mol
GGTACCACGTGTTTGA	0.11 kcal/mol
CTGATCACGTGTGTGA	0.09 kcal/mol
ATGTGCACGTGCCTGG	-0.15 kcal/mol
CGAGTCACGTGGGTAA	-0.03 kcal/mol
TATGACACGTGTGTTG	-0.03 kcal/mol
TGATGCACGTGGGGCG	-0.19 kcal/mol
TTGATCACGTGCCGGT	0.13 kcal/mol
TTGATCACGTGAGGTG	0.31 kcal/mol
CTTTGCACGTGTCTGT	-0.12 kcal/mol
GTGATCACGTGATGGG	0.33 kcal/mol
GATAACACGTGTGTTT	-0.07 kcal/mol
AATATCACGTGTTCTT	0.1 kcal/mol
